According to PubChem BioAssay AID588342 (National Center for Advancing Translational Sciences (NCATS), 2011):
Among all 360,000 compounds or so, about 25,000 (6.9%) were called active. The inconclusive results got no clear call from the source; some entries with a clear call stand among them for comparison. Calls follow the shape of the dose curve; as a rule, active = well fitted inhibition curve with a large enough effect; inconclusive = small, poorly fitted or top-dose-only effect; inactive = flat fitted curve, though single readings scatter. Where the call is inconclusive, the potency comes from a doubtful curve fit.

Each molecule was assayed against Luciferin 4-monooxygenase (Photinus pyralis) (UniProt P08659) (assay: qHTS profiling assay for firefly luciferase inhibitor/activator using purifed enzyme and Km concentrations of substrates (counterscreen for miR-21 project)). Conditions: purified FLuc, luminescence inhibition; activity change, negative = inhibition: at 57.5 µM (top of the series).
Sequence of UniProt P08659 (P08659 whole entry, looked up): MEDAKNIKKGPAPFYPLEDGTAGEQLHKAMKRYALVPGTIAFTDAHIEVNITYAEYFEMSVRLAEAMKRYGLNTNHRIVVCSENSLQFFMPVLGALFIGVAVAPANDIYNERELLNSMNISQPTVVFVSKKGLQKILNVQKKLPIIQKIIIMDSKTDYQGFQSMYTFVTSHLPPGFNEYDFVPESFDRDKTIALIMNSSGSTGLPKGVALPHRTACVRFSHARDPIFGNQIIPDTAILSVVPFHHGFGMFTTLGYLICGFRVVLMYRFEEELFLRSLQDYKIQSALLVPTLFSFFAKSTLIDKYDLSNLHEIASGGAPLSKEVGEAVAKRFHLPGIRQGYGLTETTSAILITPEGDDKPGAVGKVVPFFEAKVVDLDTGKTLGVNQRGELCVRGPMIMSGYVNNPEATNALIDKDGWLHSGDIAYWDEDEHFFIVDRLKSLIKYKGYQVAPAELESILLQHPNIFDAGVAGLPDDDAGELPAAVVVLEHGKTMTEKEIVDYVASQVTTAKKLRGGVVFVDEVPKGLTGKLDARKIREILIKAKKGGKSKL
Method in brief: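 Purified P. pyralis luciferase, 10 nM final, with Km-level 10 uM D-luciferin and 10 uM ATP in 50 mM Tris acetate pH 7.5, 10 mM Mg acetate, 0.01% Tween-20, 0.05% BSA; 6-point qHTS titration about 60 µM downward; luminescence read.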
Also: nearly all actives have a fitted effect of over 55% in size.
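For activity change, negative = inhibition in this document: plate controls were vehicle for no effect and reference inhibitor for full effect.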
Potency is read from the fitted curve at half-maximal effect; tags tell the direction and shape of the fitted curve.

| Structure (SMILES) | Potency | activity change, negative = inhibition |
| --- | --- | --- |
| OC1CCCN(c2c3c(nc4cc(-c5cccc(F)c5)nn24)CCCC3)C1 (stereo not drawn) | inconclusive: 21.3 µM [inhibitor, partial curve, poor fit] |  |
| Cc1ccc(C(c2sc3nc(-c4ccco4)nn3c2O)N2CCCCC2)cc1 (stereo not drawn) | inconclusive: 21.3 µM [inhibitor, partial curve, poor fit] |  |
| O=C(N/N=C/c1ccc2c(c1)OCO2)c1sc2cc(Cl)ccc2c1Cl | inconclusive: 26.9 µM [inhibitor, partial curve, poor fit] |  |
| Cn1c2ccccc2c(=O)c2c(=O)n(-c3ccccc3)c(-c3ccc(C(C)(C)C)cc3)nc21 | inconclusive: 37.9 µM [inhibitor, partial curve, poor fit] |  |
| O=C(Nc1cccnc1)/C(N=Nc1cccnc1)=C(\O)c1ccccc1 | inconclusive: 19 µM [inhibitor, single point] |  |
| CCN(Cc1ccccc1)C(=O)Nc1ccc2c(c1)N(C)C(=O)c1ccccc1S2 |  | inactive: -10.6% |
| COc1ccc(Cn2c(SCC#N)nc3ccc(N4CCOCC4)cc3c2=O)cc1 | inconclusive: 12 µM [inhibitor, partial curve] |  |
| Cc1ccc2c(C)c(C(=O)N3CCCCC3CO)oc2c1C (stereo not drawn) | inconclusive: 23.9 µM [inhibitor, partial curve, poor fit] |  |
| CC(C)(C)C1CCc2c(sc3c2C(=O)NC(c2ccco2)N3)C1 (stereo not drawn) | active: 3.01 µM |  |
| c1csc(-c2nc3ccccc3s2)c1 | active: 2.69 µM |  |
| COc1cccc(/C=C/C(=O)OCC(=O)c2ccc(C)c(C)c2)c1OC | inconclusive: 8.49 µM [inhibitor, partial curve, poor fit] |  |
| CC(C)c1ccc(N2C(=O)/C(=C/N(C)C)SC2=S)cc1 | inconclusive: 37.9 µM [inhibitor, single point] |  |
| COc1ccc(/C=C/C(=O)c2cc(Cl)ccc2O)c(OC)c1 | active: 10.7 µM |  |
| CCOc1ccc(CNC(=O)Cn2nc(C)c3sc4ccccc4c3c2=O)cc1 | inconclusive: 10.7 µM [inhibitor, partial curve, poor fit] |  |
| COc1ccc(N2CCN(S(=O)(=O)CCNC(=O)/C=C/c3ccccc3)CC2)cc1 |  | inactive: 8.49% |
| Clc1cccc(-c2noc3ncnc(NC4CCCCC4)c23)c1 | inconclusive: 10.7 µM [inhibitor, partial curve, poor fit] |  |
| COc1cc(/C=C2/C(=O)N(c3ccc(C(=O)O)cc3)N=C2C)cc(OC)c1O | inconclusive: 23.9 µM [inhibitor, partial curve] |  |
| O=C(NCCCN1CCOCC1)c1cc(-c2ccc(Br)cc2)nc2ccccc12 | inconclusive: 19 µM [inhibitor, single point] |  |
| CCc1ccc2c(CN3CCc4ccccc43)cc(=O)oc2c1 | inconclusive: 19 µM [inhibitor, partial curve, poor fit] |  |
| Cc1ccc(NC(=O)COc2ccc(CCO)cc2-n2nc3ccccc3n2)cc1C |  | inactive: 1.86% |
| CCc1nnc(NS(=O)(=O)c2ccc(NC(=O)COc3ccc(Cl)c(C)c3)cc2)s1 | inconclusive: 26.9 µM [inhibitor, single point] |  |
| CN(CC(=O)Nc1cccc(F)c1)CC(=O)N1CCCCC1 |  | inactive: 2.3% |
| COc1ccc(C(=O)O/N=C(\C)c2cnccn2)cc1 | active: 10.7 µM |  |

| Structure (SMILES) | Potency | activity change, negative = inhibition |
| --- | --- | --- |
| Brc1ccc(C2Nc3cccc4cccc(c34)N2)s1 | inconclusive: 26.9 µM [inhibitor, single point] |  |
| O=C(O)/C=C\C(=O)Nc1ccccc1C#Cc1ccccc1 | inconclusive: 21.3 µM [inhibitor, partial curve, poor fit] |  |
| O=C(Nc1cccc(C(=O)O)c1)/C(=C\c1ccc2c(c1)OCO2)NC(=O)c1ccco1 | inconclusive: 23.9 µM [inhibitor, partial curve, poor fit] |  |
| COc1ccc(CSc2nc3ccncc3n2Cc2nc(-c3ccc(OC)c(OC)c3)oc2C)cc1 | active: 4.78 µM |  |
| COC(=O)C1(Cc2cc(-c3ccc(Cl)cc3)no2)CCN(C(=O)OC(C)(C)C)CC1 | inconclusive: 26.9 µM [inhibitor, partial curve, poor fit] |  |
| Cc1cccc(OCC(=O)Nc2ncn[nH]2)c1C | inconclusive: 26.9 µM [inhibitor, partial curve, poor fit] |  |
| CSc1cccc(NC(=O)Nc2ccccc2C(N)=O)c1 | active: 10.7 µM |  |
| CCOC(=O)c1c(-c2ccccc2)oc2ccc(NS(=O)(=O)c3ccccc3)cc12 | inconclusive: 30.1 µM [inhibitor, partial curve, poor fit] |  |
| CCCOC(=O)c1ccc(Cl)c(NC(=O)c2ccc(-c3ccccc3)cc2)c1 | inconclusive: 7.57 µM [inhibitor, partial curve] |  |
| CCOC(=O)Cn1cc(/C=N/NC(=O)c2ccc(C#N)cc2F)c2ccccc21 | inconclusive: 21.3 µM [inhibitor, single point] |  |
| NS(=O)(=O)c1ccc(N=Nc2ccc(O)c3ncccc23)cc1 | inconclusive: 26.9 µM [inhibitor, single point] |  |
| O=C(c1ccco1)N1CCN(c2cccc(Cl)c2)CC1 | inconclusive: 37.9 µM [inhibitor, partial curve, poor fit] |  |
| CCN(Cc1cc(=O)[nH]c2ccccc12)C(=O)c1ccc(C)cc1 |  | inactive: -7.58% |
| COc1ccccc1/C=N/NC(=O)c1cccc(NC(=O)c2ccccc2Cl)c1 | inconclusive: 12 µM [inhibitor, partial curve] |  |
| Cc1cc(-c2nc3ccccc3c(=O)o2)ccc1[N+](=O)[O-] | active: 2.69 µM |  |
| O=C(Nc1ccc(F)cc1)C(=O)C1C(=O)Nc2ccccc21 (stereo not drawn) | inconclusive: 30.1 µM [inhibitor, single point] |  |
| COc1ccc(NC(=O)CSc2ccccc2)cn1 | inconclusive: 37.9 µM [inhibitor, partial curve, poor fit] |  |
| Cc1nc2ccccc2nc1N1CCCCC1 | inconclusive: 13.5 µM [inhibitor, partial curve] |  |
| O=C(/C=C/c1ccccc1)NCCC1=CCCCC1 | active: 9.53 µM |  |
| Cn1ccsc1=NC(=O)c1ccc(Cl)c([N+](=O)[O-])c1 | inconclusive: 8.49 µM [inhibitor, partial curve] |  |
| CCCCN1CCc2c([nH]c3c(C)cccc23)C1=O | inconclusive: 4.26 µM [inhibitor, partial curve, poor fit] |  |
| CCOc1ccc2c(c1)C(C)=CC(C)(C)N2C(=O)Nc1ccccc1F | inconclusive: 13.5 µM [inhibitor, partial curve] |  |
| CCCn1c(CCC(=O)Nc2ccccc2Cc2ccccc2)nc2cc(S(=O)(=O)N3CCOCC3)ccc21 |  | inactive: -0.0215% |

| Structure (SMILES) | Potency | activity change, negative = inhibition |
| --- | --- | --- |
| COc1cccc(CNC(=O)Nc2cccs2)c1 | inconclusive: 26.9 µM [inhibitor, single point] |  |
| Cc1ccnc(NS(=O)(=O)c2ccc(NC(=O)c3oc4ccccc4c3C)cc2)n1 | inconclusive: 37.9 µM [inhibitor, partial curve, poor fit] |  |
| CCOC(=O)c1ccc(NC(=O)Cc2coc3cc(C)cc(C)c23)cc1 |  | inactive: 0.86% |
| Oc1[nH]c2ccccc2c1N=Nc1ncnc2c1oc1ccccc12 | inconclusive: 0.675 µM [inhibitor, full curve] |  |
| Cc1ccc(NC(=O)Cn2c(=O)n(Cc3ccc4c(c3)OCO4)c(=O)c3ccc(C(=O)NC4CCCCC4)cc32)cc1 |  | inactive: 1.03% |
| CCOC(=O)c1ccc(N2C(=O)c3n[nH]c(C)c3C2c2ccc(O)c(OC)c2)cc1 (stereo not drawn) |  | inactive: 6.1% |
| O=C(Nc1ccc2c(c1)OCO2)Nc1ccc2c(c1)OCO2 | inconclusive: 2.13 µM [inhibitor, full curve] |  |
| CCc1ccc(NC(=S)Nc2ccc(S(=O)(=O)Nc3ncccn3)cc2)cc1 | inconclusive: 37.9 µM [inhibitor, single point] |  |
| COc1ccc(NC(=O)c2c(N)no[n+]2[O-])cc1 |  | inactive: -4.81% |
| COc1ccc(CNC(=S)N/N=C/c2ccc(O)c(OC)c2)cc1 | inconclusive: 37.9 µM [inhibitor, single point] |  |
| CN(C(=O)COC(=O)c1cccc(S(=O)(=O)N(C)c2ccccc2)c1)C1CCCCC1 | inconclusive: 26.9 µM [inhibitor, partial curve, poor fit] |  |
| Cc1ccc(C)c(/C=C2\N=C(c3ccccc3F)OC2=O)c1 | inconclusive: 16.9 µM [inhibitor, partial curve, poor fit] |  |
| COc1ccc(-c2nnc(SCC(=O)N3CCCC3)o2)cc1 | inconclusive: 23.9 µM [inhibitor, partial curve] |  |
| COc1ccccc1/C=C/C(=O)NC(=S)Nc1ccccn1 | active: 10.7 µM |  |
| COc1ccc(Cc2nc(-c3ccccn3)no2)cc1 | inconclusive: 23.9 µM [inhibitor, partial curve] |  |
| Cc1ccccc1C1C2=C(Nc3[nH]n(-c4ccccc4)c(=O)c31)c1ccccc1C2=O (stereo not drawn) | inconclusive: 16.9 µM [inhibitor, partial curve] |  |
| O=C(N/N=C/c1cccnc1)c1ccccc1 | inconclusive: 23.9 µM [inhibitor, partial curve] |  |
| CCOc1ccccc1N1CCN(CC(=O)Nc2nnc(CC)s2)CC1 |  | inactive: -0.101% |
| COc1cc(OC)cc(C(=O)N[C@H](C(=O)Nc2cc(F)ccc2C)C(C)C)c1 |  | inactive: -0.119% |
| O=C(CSc1ccc([N+](=O)[O-])cc1)Nc1cccc(S(=O)(=O)Nc2ccccc2F)c1 | inconclusive: 26.9 µM [inhibitor, single point] |  |
| COc1ccc(-c2cc(=O)c3ccccc3o2)cc1 | active: 6.01 µM |  |
| O=C1c2ccccc2C(=O)N1OCc1c(F)cccc1Cl | inconclusive: 15.1 µM [inhibitor, partial curve] |  |
